To fix the notation:
B1: CPEB3 Ribozyme (parent)
chain: UAACAGGGGGCCACAGCAGAAGCGUUCACGUCGCAGCCCCUGUCAGAUUCUGGUGAAUCUGCGAAUUCUGCUGUAUAUCUC

Read counts are not given, so values of variants with three or more changes are uncertain.

The variants in this data set derive from B1. The data set is described as follows: self-cleavage, relative activity (ratio to wild type); higher = more cleavage; in vitro, sequencing. A digest of the protocol: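 After error-prone PCR and barcoding, CPEB3 ribozyme mutant libraries were transcribed with T7 RNA polymerase at 37°C for 5 hours, then given 15 min with DNase I before an EDTA stop, and they cleaved during both steps. Reverse transcription with template switching preceded Illumina sequencing. Relative activity divides a variant's cleaved/total read fraction by the unmutated ribozyme's. At least 5 reads were required per variant, and three batches were averaged.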
Take UAACAGGGGGCCACAGCAGAGGCGUUCACGCCGCAUCCCCUGUCAGAUUCUGGUGAAUCCGCGAAGUCUGCUGUAUAUCUC [A21G U31C G36U U60C U66G]: the self-cleavage turned out to be 0.11.

With UAACAGGGGGCCACAGCAGAGGCGUCCACGCCGCAGCCCCUGUCAGAUUCUGGUGAAUCUGCGAAUUCUGCUGUAUAUCUC [A21G U26C U31C], the self-cleavage worked out at 0.22.

Consider UAACAGGGGGCCACAGCAGAGGCGUCCACGUCGCAGCCCCUGUCAGAUUCUGGUGAAUCUGCGAAUUCAGCUGUAUAUCCC [A21G U26C U69A U80C], for which the self-cleavage came to 0.46.

As to UAACAGGGGGCCACAGCAGAGGCGUCCACGUCGCAGCCCCUGUCAGAUUCUGGUGAAUCAGCGAAUUCUGCUGUACAACUC [A21G U26C U60A U76C U78A], the self-cleavage came out at 0.

In the case of UAACAGGGGGCCACAGCAGAGGCGUCCACGUCGCAGCCCCUGUCAGAUUCUGGCGAAUCUGCGAAUACUGCUGUAUAUCUC [A21G U26C U54C U67A], the self-cleavage was 0.32.

UAACAGGGGGCCACAGCAGAGGCGUCCGCGUCGCAGCCCCUGUCAGAUUUUGGUGAUUCUGCGAAUUCUGCUGUAUAUCUC [A21G U26C A28G C50U A57U]: the self-cleavage came out at 0.09.

For UAACAGGGGGCCACAGCAGAGGCGUUCACGCCGCAGCCCCAGUCAGAUUCUGGCGAAUCUGCGAACUCUGCUGUAUAUCUC [A21G U31C U41A U54C U66C], the self-cleavage came out at 0.2.

Regarding UAACAGGGGGCCACAGCAGAGGCGUCCUCGUCGCAGCCCCUGUCAGAUUCUGGUGAAUCUGCGAAUUCUGCUGUAUAUCUC [A21G U26C A28U], the self-cleavage is 0.19.

Consider UAACAGGGGGCCACAGCAGAGGCGUCCACGUCGCAACCCUUGUCGGAUUCUGGUGAAUCUGCGAAUUCCGCUGUAUAUCUC [A21G U26C G36A C40U A45G U69C], for which the self-cleavage is 0.16.

Regarding UAACAGGGGGCCACAGCAGAGGCGUCCACGUCGCAGCCCCUGUCAGAUUCUGGUGAAUCCGCGAAUUCUGCUGUAUAUCUC [A21G U26C U60C], the self-cleavage was found to be 0.34.

Consider UAACAGGGGGCCACAGCAGAGGCGUUCACGCCGCAGCCCCAGUCGGAUUCUGGUGAAUCUGCGAAUUCUGCUGUAUAUCUC [A21G U31C U41A A45G], for which the self-cleavage worked out at 0.29.

As for UAACAGGGGGCCACAGCAGAGGCGUUCACGACGCAGCCCCUGUCAGACUCUGGUGAAUCUGCGAAUUCUGCUGUACACCUC [A21G U31A U48C U76C U78C], the self-cleavage came out at 0.13.

Consider UAACAGGGGGCCACAGCAGAGGCGUGCACGACGCAGCCCCUGUCAGACUCUGGUGAAUCUGCGAUUUCUGCUGUAUAUCUC [A21G U26G U31A U48C A65U], for which the self-cleavage was 0.06.

As for UAACAGGGGGCCACAGCAGAGGCGUUCACGCCGCAGCCCCUGUCAGAUUCUGGUGAGUCUGCGAAUUCUGCUGUAUAUCUC [A21G U31C A57G], the self-cleavage came to 0.17.

For the variant UAACAGGGGGCCACAGCAGAGGCGUCCACGUCGCAGCCCCUGUCAGAUUCUGGUGAAUCCGCGAAUUCCGCUAUAUAUCUC [A21G U26C U60C U69C G73A], the self-cleavage was 0.13.

UAACAGGGGGCCACAGCAGAGGCGUCCACGUCGCAGCCCCUGUAAGAUCCUGGUGAAUCUGCGAAUUCUGCUGUAUAUCUC [A21G U26C C44A U49C]: the self-cleavage stood at 0.1.

For the variant UAACAGGGGGCCACAGCAGAGGCGUUCACGCCGCAGCCCCUGUCAGAUUCUGGUGAAUCUGCGAAUUCUGCUGUGUAUCUC [A21G U31C A75G], the self-cleavage turned out to be 0.09.

Turning to UAACAGGGGGCCACAGCAGAGGCGUCCACGUCGCUGCCCCUGUCAGAUUAUGGUGAAUCUGCGAAUUCUGCUGUAUUUCUC [A21G U26C A35U C50A A77U], the self-cleavage was found to be 0.28.

For the variant UAACAGGGGGCCACAGCAGAGGCGUUCACGCCGCAGCCCCUGUCAGUUUCUGGUGAAUCUGCGGAUUCUGCUGUAUAUCUC [A21G U31C A47U A64G], the self-cleavage came out at 0.24.

In the case of UAACAGGGGGCCACAGCAGAGGCGUUCACGACGCGGCCCCUGUUAGAUUCCGGUGAAUCUGCGAAUUCUGCUGUAUACCCC [A21G U31A A35G C44U U51C U78C U80C], the self-cleavage stood at 0.06.

Regarding UAACAGGGGGCCACAGCAGAGGCGUCCACGUCGCAGCCCCUGUCGGAUUCUGGUGAGUCUGCGAAUUCUGCUGUAUAUCUC [A21G U26C A45G A57G], the self-cleavage worked out at 0.25.

For the variant UAACAGGGGGCCACAGCAGAGGCGUUCACGACGCAGCCCCUGUCUGAUUCUGGUGAAUCUGCGAAUUCUGCUGUAUAUCUC [A21G U31A A45U], the self-cleavage stood at 0.33.

With UAACAGGGGGCCACAGCAGAGGCGUUCACGCCGCUGCCCCUGUCAGAUUCUGGUGAAUCAGCGAAUUCUGCUGUAUAUCUC [A21G U31C A35U U60A], the self-cleavage was 0.05.

Consider UAACAGGGGGCCACAGCAGAGGCGUUCACGCCGCAGCCCCUGUCUGAUUCUGGUGAAUCUGCGAAUUCUGCUGUAUAUCUC [A21G U31C A45U], for which the self-cleavage was determined as 0.22.

With UAACAGGGGGCCACAGCAGAGGCGUUCACGCCUCAGCCCCCGUCAGAUUCUGGUGAAUCUGCGAACUCUGCUGUAUAUCCC [A21G U31C G33U U41C U66C U80C], the self-cleavage was 0.05.

Regarding UAACAGGGGGCCACAGCAGAGGCGUUCACGACGCAGCCCCUGUCAGAUUCUGGUGGAUCUGCGAAUUCUGCUGUAUAUCUC [A21G U31A A56G], the self-cleavage is 0.53.

Regarding UAACAGGGGGCCACAGCAGAGGCGUCCAUGUCGCAGCCCCUGUCAGAUUCUGGUGAAUCUGCGGAUUCCGCUGUAUAUCUC [A21G U26C C29U A64G U69C], the self-cleavage is 0.26.

Turning to UAACAGGGGGCCACAGCAGAGGCGUUCACGCCGCAGCCCCUGUCAGAUUCUGGUGAAUCUGCGAAUUCCGCUGUAUAUCUC [A21G U31C U69C], the self-cleavage was determined as 0.32.

With UAACAGGGGGCCACAGCAGAGGCGUCCACGUCGCAGCCCCUGUCUGCUUCCGGUGAAUCUGCGAAUUCUGCUGUAAAUCUC [A21G U26C A45U A47C U51C U76A], the self-cleavage is 0.1.

Consider UAACAGGGGGCCACAGCAGAGGCGUUCACGCCGCAGCCCCUGUCAGAUUCUGGUGAAUCUGCGAAUCCUGCUGUAUAUCUC [A21G U31C U67C], for which the self-cleavage was found to be 0.36.

Regarding UAACAGGGGGCCACAGCAGAGGCGUUCACGCCGCAGCCCCUGUCAGAUUCUGGUGAACCUGCGAAUUCUGCUGUAUAUCCC [A21G U31C U58C U80C], the self-cleavage is 0.09.

UAACAGGGGGCCACAGCAGAGGCGUCCACGUCGCGGCCCCUGUCAGAUUCUGGUGAAUCUGCGAAUUCUGCUGUAUAUCUC [A21G U26C A35G]: the self-cleavage came out at 0.65.

In the case of UAACAGGGGGCCACAGCAGAGGCGUCCACGUCGCAGCCCCUGUCAGAUUCCGGUGAAUCUGCGAAAUCUGCUGUAUUUCUC [A21G U26C U51C U66A A77U], the self-cleavage came to 0.08.

For UAACAGGGGGCCACAGCAGAGGCGUUCACGCCGCAGCCCCUGUCAGAUUCAGGAGAAUCUGCGAACUCUGCUGUAUAUCUC [A21G U31C U51A U54A U66C], the self-cleavage came to 0.64.

For the origin of these results see the RNAGym collection of RNA variant scans (doi:10.1093/nar/gkz1192).
